Out of some 44,000 compounds screened, about 340 (0.77%) were called active. Roughly 5% stayed inconclusive and do not appear here. The call rests on the fitted dose curve; in most records, active means well fitted inhibition curve with a large enough effect; inconclusive means small, poorly fitted or top-dose-only effect; inactive means flat fitted curve, though single readings scatter. This is one part of the list.
Potency means the concentration at half of the fitted maximal effect.

A short description of this assay: Acumen qHTS Assay for Inhibitors of the mTORC1 Signaling Pathway in MEF (Tsc2-/-, p53-/-) Cells: Sytravon. Further: nearly all actives have a fitted effect of over 50% in size.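 On activity change, negative = inhibition: plate controls were DMSO for no effect and rapamycin for full effect.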 To be noted: phospho-rpS6 immunofluorescence/PI, 24 h; series mostly up to 38.3 µM; activity change, negative = inhibition: at the top concentration. The essentials: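 Cell-based qHTS: Tsc2-/- p53-/- MEF, 24 h cpd, 37 °C; fix/perm, anti-phospho-S6 Alexa-488 + PI; Acumen 488 nm scan; pS6/PI ratio, % positive cells; rapamycin 7.5 nM = inhibition ref; PI count = viability.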
On the technique in general: Quantitative high-throughput screening tests each substance at several concentrations.
As for `CCN(CC)c1ccc(NC(=O)c2cc(CN3CCCC3)on2)c(C)c1`, the “activity change, negative = inhibition” value was inactive: 0%. The same measure, in the same setting: the value for `Cn1c(=O)c2ccccc2n2c(CCC(=O)N3CCN(c4cccc(Cl)c4)CC3)nnc12` was inactive: 0.1%; that for `CCOc1ccc(NC(=O)CC2C(=O)N(c3cccc(OC)c3)C(=O)N2C2CCCCC2)cc1` (stereo not drawn) was inactive: 1.41%. Take `COc1ccc2c(C)c(CC(=O)NCCc3ccccc3)c(=O)oc2c1OC`: the “activity change, negative = inhibition” value was inactive: 2.63%. Regarding `COc1ccccc1C(=O)Nc1cc(-c2cccc(Br)c2)nn1-c1ccccc1`, the “activity change, negative = inhibition” value was inactive: -21.5%.

Consider `Cc1cc(C)cc(N2C(=O)CC(c3ccc(C(F)(F)F)cc3)C3=C2COC3=O)c1` (stereo not drawn), for which the “activity change, negative = inhibition” value was inactive: -2.84%.

Consider `COc1ccc(Cl)cc1NC(=O)C(C)n1nnc2sc3c(c2c1=O)CCCC3` (stereo not drawn), for which the “activity change, negative = inhibition” value was inactive: 1.41%. For the compound `Cc1cccc(NC(=O)CSc2nc(-c3cccs3)cc(C(F)(F)F)c2C#N)c1`, the “activity change, negative = inhibition” value was inactive: -3.27%. The same measure, in the same setting: under `CCN1CCN(c2csc3ccc(Cl)cc3c2=O)CC1` stands inactive: 3.48%; under `CCCCn1c(Oc2cccc(C(=O)OC)c2)nc2c1c(=O)n(C)c(=O)n2C`, inactive: -2.54%. Turning to `COc1ccc(Cn2c(SCC(=O)NCc3ccccc3)nc3ccccc32)cc1`, the “activity change, negative = inhibition” value is inactive: 6.75%. Consider `Cc1ccc(C(=O)NCC(=O)OCc2cc(=O)n3nc(C4CCCCC4)sc3n2)cc1`, for which the “activity change, negative = inhibition” value is inactive: 1.93%.

As to `CCOc1ccc(NC(=O)Cn2nnc(C(=O)OC)c2C(=O)OC)cc1`, the “activity change, negative = inhibition” value was inactive: -5.38%. `COc1ccc(C(=O)NC2(C(F)(F)F)C(=O)NC(C)=C2C#N)cc1` (stereo not drawn): the “activity change, negative = inhibition” value is inactive: 0.309%. With `Cc1ccc2c(c1)C(c1ccc(F)cc1)N(C(=O)C(C)C)CC(=O)N2` (stereo not drawn), the “activity change, negative = inhibition” value is inactive: 0%. With `CCc1cccc(NC(=O)Cn2nc(CC)n3c(cc4cc(C)ccc43)c2=O)c1`, the “activity change, negative = inhibition” value is inactive: -12.5%.

In the case of `O=c1oc2ccc3ccccc3c2cc1-c1nnc(Nc2ccccc2)s1`, the “activity change, negative = inhibition” value was inactive: -4.66%. Same read-out and setting: under `Cc1cc(S(=O)(=O)Nc2cccc(-c3ccc(N4CCOCC4)nn3)c2)c(C)cc1Cl` stands inactive: -7.08%. On the same count and under the same terms, the value for `COc1cccc(NC(=O)CSc2nc(O)c(C/C=C/c3ccccc3)c(=O)[nH]2)c1` was inactive: 0.333%; that for `COc1ccc(N2CCN(S(=O)(=O)c3ccc(-c4cc(C(F)(F)F)on4)s3)CC2)cc1` was inactive: -5.2%. For the compound `Cc1ccc(CCNC(=O)c2sc3ncccc3c2-n2cccc2)cc1`, the “activity change, negative = inhibition” value was inactive: -6.41%. Regarding `COc1cc(NC(=O)c2nc3cc(C)c(C)cc3n(C)c2=O)cc(OC)c1OC`, the “activity change, negative = inhibition” value was inactive: 2.26%. For `CCC(=O)Nc1cc(C(=O)NCc2ccc(C)cc2)ccc1S(=O)(=O)c1ccc(C)cc1`, the “activity change, negative = inhibition” value was inactive: -2.55%. Still for that read-out and setting: the value for `Cc1ccc(C)c(CN2C(=O)c3ccccc3Sc3ccc(C(=O)NCc4ccco4)cc32)c1` was inactive: -0.269%. Still for that read-out and setting: under `Cc1cccc(OCc2ccc(-c3nc(C#N)c(N4CCN(c5ccccc5)CC4)o3)o2)c1` stands inactive: 3.14%; under `Cc1cc(C)c2oc(C(=O)Nc3c(C(=O)c4ccc(F)cc4)oc4ccccc34)cc(=O)c2c1`, inactive: -5.56%. `CCc1cccc(C)c1Nc1c(-c2ccc(N(C)C)cc2)nc2ncccn12`: the Potency is active: 13.1 µM. On to `CC1CCC(NC(=O)C2(C)Cc3ccccc3C(=O)N2Cc2ccccc2Cl)CC1` (stereo not drawn), for which the “activity change, negative = inhibition” value was inactive: -2.5%. For `CCN(CC)c1ccc(NC(=O)Cn2c(C)c3cnn(-c4ccccc4)c(=O)c3c2C)c(C)c1`, the “activity change, negative = inhibition” value is inactive: 0.0309%. In the case of `Cc1cc(Cl)ccc1NC(=O)CCS(=O)(=O)c1cc2c(cc1C)NC(=O)CO2`, the “activity change, negative = inhibition” value is inactive: 1.12%. `COC(=O)c1c(-c2cccs2)csc1NC(=O)c1cc(OC)cc(OC)c1`: the “activity change, negative = inhibition” value is inactive: -1.24%. As to `O=C(NCCSc1c(-c2ccc(Br)cc2)[nH]c2ccccc12)c1ccc(S(=O)(=O)N2CCOCC2)cc1`, the “activity change, negative = inhibition” value is inactive: -16.2%. Regarding `Cc1ccc(CNC(=O)C(CC(C)C)N2Cc3ccccc3C2=O)cc1` (stereo not drawn), the “activity change, negative = inhibition” value is inactive: 1.23%.

Take `Clc1cccc(-n2ncc3c(NCCCc4ccccc4)ncnc32)c1`: the “activity change, negative = inhibition” value was inactive: 6.63%. For the compound `Cc1cc(C)cc(NC(=O)C(Cc2ccccc2)N2Cc3ccccc3C2=O)c1` (stereo not drawn), the “activity change, negative = inhibition” value was inactive: -8.32%. On the same count and under the same terms, under `Cc1ccc(-n2c(=O)c3sccc3n(Cc3cc(=O)n4ccccc4n3)c2=O)cc1` stands inactive: -3.12%; under `COc1ccc(C(=O)N2CCC(C(=O)Nc3ccc(OC)cc3OC)CC2)cc1`, inactive: -5.33%; under `CCN(C(=O)Cn1nc(Cc2cccnc2)c2ccccc2c1=O)c1cc(C)ccc1C`, inactive: -21.5%. Consider `Cc1ccccc1C(=O)Nc1nnc(S(=O)(=O)N2CCCc3ccccc32)s1`, for which the “activity change, negative = inhibition” value was inactive: 1.08%. Consider `O=C1C(c2ccc(C(F)(F)F)cc2)=C(Nc2ccc(Cl)cc2)c2ccccc21`, for which the “activity change, negative = inhibition” value was inactive: -18.9%. Still for that read-out and setting: under `Cc1cccc(-c2cc(NC(=O)COc3ccccc3F)n(-c3ccccc3)n2)c1` stands inactive: -1.1%. As for `Cc1nnsc1C(=O)Oc1ccccc1Cl`, the “activity change, negative = inhibition” value was inactive: 1.56%. As for `Cc1ccc(-c2cn3c4c(=O)n(C)c(=O)n(C)c4nc3n2-c2cccc(Cl)c2)cc1`, the “activity change, negative = inhibition” value was inactive: -6.8%. For the compound `Cc1ccc(NC(=O)CSc2nnc(-c3cc4occc4n3C)n2-c2ccccc2C)cc1F`, the “activity change, negative = inhibition” value was inactive: -3.44%. Still for that read-out and setting: under `CCn1c(C(=O)Nc2cc(C)cc(C)c2)cc2sc(Cl)cc21` stands inactive: -4.94%. The same measure, in the same setting: the value for `COc1ccc(C(=O)N=c2sc3cc(Cl)ccc3n2C)cc1` was inactive: 7.08%. Same read-out and setting: the value for `CCN(CC)CCOC(=O)c1ccc(NC(=O)CCn2c(=O)oc3ccccc32)cc1` was inactive: 0.816%; that for `N#Cc1ccccc1NC(=O)C(=O)NCC(c1cccnc1)N1CCc2ccccc2C1` (stereo not drawn) was inactive: 7.97%.

The values above are taken from PubChem BioAssay AID493208 (National Center for Advancing Translational Sciences (NCATS), 2011).
